Measured values published in the RNAGym collection of RNA variant scans (doi:10.1093/nar/gkz1192).
Read counts are not given, so values of variants with three or more changes are uncertain.

B1: CPEB3 Ribozyme (parent)
chain: UAACAGGGGGCCACAGCAGAAGCGUUCACGUCGCAGCCCCUGUCAGAUUCUGGUGAAUCUGCGAAUUCUGCUGUAUAUCUC

Variants of: B1
Test: self-cleavage, relative activity (ratio to wild type); higher = more cleavage; in vitro, sequencing
Outline: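 Libraries of CPEB3 self-cleaving ribozyme mutants came from rounds of error-prone PCR and carried barcodes, which DNA sequencing matched to variants. In vitro transcription used T7 RNA polymerase at 37°C for 5 hours, with a further 15 min in DNase I before EDTA stopped the reaction; the ribozymes cleaved during both steps. The RNA was reverse transcribed with template switching and sequenced on Illumina. Relative activity is the cleaved/total read fraction of a variant divided by that of the unmutated ribozyme, averaged over three batches with at least 5 reads.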
In the case of G9A C32U U80C, the self-cleavage is reported as 0.04. For G9U A15G U48C U66C, the self-cleavage was 0.23. For G8A U41C U48G A57G U60C, the self-cleavage was 0.06. Work on G8U A28C U69C yielded a self-cleavage of 0.25. In the case of G9A U26A U41C, the self-cleavage is reported as 0.34. G9A U25C U54A U67C showed a self-cleavage of 0.15. In the case of G9A A28C U43A, the self-cleavage is reported as 0.06. In the case of G9A A18U U26C U41C U43C U54C U78C, the self-cleavage is reported as 0.06. G8A C11U U43A U72C U78C showed a self-cleavage of 0.12. G8U A15G U26C U31A U67A U72C U76A showed a self-cleavage of 0.03. G9A U43C U58A U80A showed a self-cleavage of 0.07. Variant G9C A18U C50A A65G U80A has a self-cleavage of 0.05. In the case of G8A U26C A45C U48C U66C, the self-cleavage is reported as 0.06. Variant G9A A35G U66A has a self-cleavage of 0.14. Variant G9A C27A U43A G73A has a self-cleavage of 0.06. G8A U31C C32U U78C gave a self-cleavage of 0.06. Variant G9A C40A U43C has a self-cleavage of 0.35. Variant G9C A15G C40A has a self-cleavage of 0.28. Work on G8A U72A A77U yielded a self-cleavage of 0.05. Variant G9A A21G U26C G63U has a self-cleavage of 0.09. G8A G10A U31C U58A showed a self-cleavage of 0.07. G8A G16A A20G U41A U67A showed a self-cleavage of 0.07. With G8A C23U U43A C44A A56U U60A the self-cleavage was 0.06. In the case of G8U A21G G30A C50A, the self-cleavage is reported as 0.05. For G8A C12A A13G U43A A65G U72A A75G, the self-cleavage was 0.1. Work on G9A U26C U72C U76C U80C yielded a self-cleavage of 0.06. G8A U31C C39U gave a self-cleavage of 0.7. With G8C A13U U80A the self-cleavage was 0.26. Variant G8U C37U A65C U76C has a self-cleavage of 0.04. Variant G8C A45G U48G U72A has a self-cleavage of 0.04. Work on G9A U51C U80A yielded a self-cleavage of 0.41. Work on G9A U49C U60A A64G U78C yielded a self-cleavage of 0.28. In the case of G9A U66C U67A A77C, the self-cleavage is reported as 0.12. Work on G9A A20G U26C G36C U54G G73A yielded a self-cleavage of 0.04. G9A U48C U72C U80C gave a self-cleavage of 0.39. G9A A57G A64U gave a self-cleavage of 0.14. For G8A U26C C37U A64U U67C, the self-cleavage was 0.05. Variant G8A C32A U41C has a self-cleavage of 0.21. G8C U49C C68U gave a self-cleavage of 0.13. With G8A G24A U25C U74A the self-cleavage was 0.11. G8A U41C U76A gave a self-cleavage of 0.32. G9A A15G U41C A45G U72G gave a self-cleavage of 0.1. G9A A28G A57G gave a self-cleavage of 0.06. Variant G8A G24C C37U U49C U54C A56G has a self-cleavage of 0.03. Work on G8U U26C U67C A77G yielded a self-cleavage of 0.07. With G8A C29G U54A A56G the self-cleavage was 0.05. G8A U26C A28U A56U C68U U74C U80G gave a self-cleavage of 0.03. G8U A15U U54C U69C showed a self-cleavage of 0.1. Work on G9A U25C C38U U72C A77G yielded a self-cleavage of 0.05. In the case of G9A U31C A57G U72C, the self-cleavage is reported as 0.09. For G8U A21G U60C, the self-cleavage was 0.16. Work on G8A U25C A77U U80A yielded a self-cleavage of 0.13. With G8U G33U U69A the self-cleavage was 0.06. G9C U48C U72C U78C showed a self-cleavage of 0.4. Variant G8U A20G U41G U48C U51A A64G A75G has a self-cleavage of 0.03. In the case of G9A A13G C39U C44A U54A, the self-cleavage is reported as 0.3. Variant G9A A13G C29U A64G has a self-cleavage of 0.07. G8A U72C U80A gave a self-cleavage of 0.43. With G9U A15U U26C U51A U66C U78C the self-cleavage was 0.07. Work on G8A C12A C38U C50G U66C U67C U80C yielded a self-cleavage of 0.04. With G9A A18G A20G G36C U41C C79U the self-cleavage was 0.34. With G9A A18G U26C A28G U31C the self-cleavage was 0.06. In the case of G9A A35U A45C A56G U60C, the self-cleavage is reported as 0.05. In the case of G9A G10C A18U G30U U51A, the self-cleavage is reported as 0.16. G8A U31G U51C A64G U67C U78C gave a self-cleavage of 0.05. G8U G22A U26C U51A gave a self-cleavage of 0.12. G9A U49A U69C U72A gave a self-cleavage of 0.12. G9A G30U A64C U67G gave a self-cleavage of 0.05. G8U A56G A57G showed a self-cleavage of 0.06. For G9A A20G U25C U67C U74C, the self-cleavage was 0.28. G8A C37A A65G U72C gave a self-cleavage of 0.04. G9C C14U A57C showed a self-cleavage of 0.05. For G8C A57G U60A U72C U78C, the self-cleavage was 0.1. For G8C U49C U54A, the self-cleavage was 0.36. With G8U U74A A75G the self-cleavage was 0.12. With G9A C40G U43C A47U U66C U78C the self-cleavage was 0.03. For G8U A35U U43C U48C U60C, the self-cleavage was 0.33. With G9C A47C A64G U66C the self-cleavage was 0.27. Work on G8U U51A A64G yielded a self-cleavage of 0.12. In the case of G8A U26A A77U, the self-cleavage is reported as 0.07. Variant G9A A18G U54C A77U has a self-cleavage of 0.09. For G9A C23G U66C, the self-cleavage was 0.07. G8C A20G U60A A65G gave a self-cleavage of 0.12. Work on G8A U25C A57G G70A yielded a self-cleavage of 0.04. In the case of G8A U26C A56G U60C, the self-cleavage is reported as 0.06. Work on G9A A47U A57U yielded a self-cleavage of 0.43. Work on G9A A15G U25C U31C C32U U49C U74G yielded a self-cleavage of 0.04. In the case of G8U A21G G24U A28G A75U U80C, the self-cleavage is reported as 0.04. Variant G8U A20G U26C A28G G30A has a self-cleavage of 0.05. Work on G9U C12G C44G A45U A57G yielded a self-cleavage of 0.04. Work on G9C U31C A47U U66C U69C yielded a self-cleavage of 0.06. For G8U A45G A64G G70C, the self-cleavage was 0.08. With G8U C14U A21G C23A U69A the self-cleavage was 0.16. Variant G9A A21G U41C A57G U67C has a self-cleavage of 0.1. With G8U A20U A35U the self-cleavage was 0.15. In the case of G9A A56G U74C A75G, the self-cleavage is reported as 0.12. In the case of G9A C14U U25C G63C U72A, the self-cleavage is reported as 0.07. G9A U74C A75G showed a self-cleavage of 0.31. Variant G8U C40U A45U U49A U78A U80A has a self-cleavage of 0.03. G9A G24A U51A A57G gave a self-cleavage of 0.07. G9C C40U U54A A64G showed a self-cleavage of 0.1. For G8A U25A U41C U49C U69C U74A U78A, the self-cleavage was 0.04. For G8U G16C A35U C62U U76A, the self-cleavage was 0.05. With G8A G46A U54C the self-cleavage was 0.06. Variant G8U C17U U49C has a self-cleavage of 0.32. G8U A15G A28U A45G A56G C59A showed a self-cleavage of 0.04. With G9U A15G A20G U31C U69G the self-cleavage was 0.21. For G9A A45G A56G U67C, the self-cleavage was 0.04. Work on G9A U31C A45U yielded a self-cleavage of 0.19. Work on G8C A57G U78A yielded a self-cleavage of 0.3. G8U U25G A64G U80C gave a self-cleavage of 0.04. Variant G8U A18U A35C A56G has a self-cleavage of 0.05. For G8A C37U A45G U49C, the self-cleavage was 0.06. With G8U A28U A64G C71U the self-cleavage was 0.09. G9A A13G A28U G33A U49C G52A U69C gave a self-cleavage of 0.05. Work on G9C A18C A28G U41A U72A U74C yielded a self-cleavage of 0.43. Work on G8A C11A U26A C40U A47U U72G yielded a self-cleavage of 0.06. For G8C G10U G16U U26C C29U A65G, the self-cleavage was 0.04. With G9A G19U G36C the self-cleavage was 0.14. G9A U25C A57G U66C A77G showed a self-cleavage of 0.12. G9A U26C G63A U72A showed a self-cleavage of 0.07. With G8U A18G U51C the self-cleavage was 0.16. For G9A G19A A47G U66A, the self-cleavage was 0.05. For G9U A15U A21G, the self-cleavage was 0.17. Work on G9A A21G A35G U43A U60C C62U U78G yielded a self-cleavage of 0.12. In the case of G9C A13U U26C A35G U78A, the self-cleavage is reported as 0.09. Work on G9A U31C C34U U41C A64G yielded a self-cleavage of 0.13. G9A A15U U54A A64G gave a self-cleavage of 0.06. Work on G9A A47U U69G yielded a self-cleavage of 0.18. With G8C A18G A20G U43C A64G U69G U72C the self-cleavage was 0.18. G9A C14U A47U U66C gave a self-cleavage of 0.06. G9A A35G A47C U48C A64G C81A gave a self-cleavage of 0.4. Work on G9A U26C U51C G52C A65U yielded a self-cleavage of 0.05. With G9C A28C U31A the self-cleavage was 0.05. Variant G8A G19U U26C A35G C37G has a self-cleavage of 0.22. Variant G9A U41A U48A A56G U58G has a self-cleavage of 0.19. G9C U43C A64G gave a self-cleavage of 0.16. With G9A A13U C23G G30A U31A A45U the self-cleavage was 0.03. With G9A C39A U41C U67A U78C the self-cleavage was 0.06. Variant G8U A18U G24A U26C U78C has a self-cleavage of 0.06. Work on G9C G33A A64G yielded a self-cleavage of 0.3. G8U A18U A65G showed a self-cleavage of 0.12. Work on G9A A47G C62U U76A yielded a self-cleavage of 0.03. For G9C A13U U31A U69C, the self-cleavage was 0.05. Work on G9U A18U U25C G73U yielded a self-cleavage of 0.08. With G9U A56U A64U the self-cleavage was 0.08. G9A A13G G33A C39U U78C gave a self-cleavage of 0.05. With G9A A21G A28G U43C the self-cleavage was 0.26. For G9A A15U U25A, the self-cleavage was 0.06. For G9U A15G A28U C40U A45U C62U U72A, the self-cleavage was 0.03. G9A A15U U31A U48C gave a self-cleavage of 0.24. Variant G8C C11U C62U has a self-cleavage of 0.08. G9A A20C U66C showed a self-cleavage of 0.12. In the case of G8C C12U U26C A56G U58C, the self-cleavage is reported as 0.07. G8A A57G A64G gave a self-cleavage of 0.06. In the case of G8U A47G U74C, the self-cleavage is reported as 0.05. In the case of G9A A15U C34A A35G, the self-cleavage is reported as 0.17. G8U U25C A56U showed a self-cleavage of 0.07. With G9A A56U A57G the self-cleavage was 0.24. Variant G9A C38G A56G U67C U72C has a self-cleavage of 0.05. G8A C34G U54C showed a self-cleavage of 0.06. In the case of G9A A18U A64G U66C, the self-cleavage is reported as 0.05. G9A A20G A35C U60C U66C U72C showed a self-cleavage of 0.04. G8U G9A A21G U76A U80C showed a self-cleavage of 0.04. With G9A A18U G61A U80C the self-cleavage was 0.22. In the case of G9A A20U U51A, the self-cleavage is reported as 0.25. G9U A15C U26C A56U U58C U72C U78A showed a self-cleavage of 0.28.
